Experimental data as given in the RNAGym collection of RNA variant scans (doi:10.1073/pnas.2313332121).
Variants at the background level are over-represented here.

B1: TPR 5TU (parent)
chain: GGAUCUUCUCGAUCUAACAAAAAAGACAAAUCUGCCACAAAGCUUGAGAGCAUCUUCGGAUGCAGAGGCGGCAGCCUUCGGUGGCGCGAUAGCGCCAACGUUCUCAACUAUGACACGCAAAACGCGUGCUCCGUUGAAUGGAGUUUAUCAUG

Variants of: B1
Assay: polymerase ribozyme fitness, log enrichment relative to wild type (log ratio); higher = more active; in vitro selection for triplet polymerase activity
Procedure, shortened: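 After PCR construction and transcription, each subunit's mutant library from a heterodimeric triplet polymerase ribozyme was annealed with a biotinylated primer, the partner subunit and triplets. Incubation was frozen, at −7 °C, and extended constructs were gel-excised, bound to streptavidin beads and amplified by RT-PCR, in one selection round done in triplicate. Fitness is the logarithm of a genotype's enrichment divided by that of the wild type, from inverse-variance-weighted replicate averages of Illumina-sequenced inputs and outputs. The base of the logarithm is 2, and genotypes needed ≥10 input reads and ≥1 read per output.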

Variant | polymerase ribozyme fitness (log ratio)
U7C G50U G140U | ≤ -4.2
U7C G68C G94C G100U U104G G117U A120G | ≤ -4.2
U7C G83C C85G C103A | ≤ -4.2
U7C G117C G136A G143U | ≤ -4.2
U7C U9A A23C C75U U77G C103A C123G | ≤ -4.2
U7C U9G A17U A26G G84A C116A | -3.98
U7C U9G A21G U33C A49C U56C C95A U104G A142G | ≤ -4.2
U7C U9G C54U A107C U127A | ≤ -4.2
U7C U15C A20G A40U U56A G59A G71A A138U U139A G143A | ≤ -4.2
U7C U45G G74A C85U | ≤ -4.2
U7C U56A A91U A106U C132U | -3.92
U7C U56A G94A A98G | -3.41
U7G A12G A24U A37C A49C G92U | ≤ -4.2
U7G A12G A52U C57A A73G C93G | ≤ -4.2
U7G A12G C18G C32U G94C A115U | ≤ -4.2
U7G A12U A60U G81C C96G U101G C114U G117A A121U | ≤ -4.2
U7G A16C C54A G67A G68C G81C C96G | ≤ -4.2
U7G A19C A30U G71C G84A C96G C118G | ≤ -4.2
U7G A19C A107C A121G U134A | ≤ -4.2
U7G A19G A23U G25C A122G | ≤ -4.2
U7G A19G G59C C76U C87A G128C G133C U139A | ≤ -4.2
U7G A20U A24U C27G C43U C76G A89G C93U | ≤ -4.2
U7G A21U G48U U53G C76U C79A C87G G100A C105U C132G G140U | ≤ -4.2
U7G A23C A39U U44C U55G A113C | ≤ -4.2

Variant | polymerase ribozyme fitness (log ratio)
U7G A23G C38U C51G A89C C93A A115U C125U U145C | ≤ -4.2
U7G A23U A73G C85G | ≤ -4.2
U7G A24U G86U A91C C99G U109G | ≤ -4.2
U7G A26G C93G C108G | ≤ -4.2
U7G A28G G59C C79U A89G C95U U102C A106U | ≤ -4.2
U7G A28U A47C G50C U53A U61G C93U C95U A150U | ≤ -4.2
U7G A30U C43U U53A C93A | ≤ -4.2
U7G A40U A66C G81C A120G U146G | ≤ -4.2
U7G A40U C43G A91U | ≤ -4.2
U7G A47U G128U | ≤ -4.2
U7G A47U U55A C57A C63U C95U | -3.6
U7G A60U C93A | ≤ -4.2
U7G A60U G83C C85A C105G A137G | ≤ -4.2
U7G A64G C87A C105A U144G | ≤ -4.2
U7G A64U C93G C95U C103G | ≤ -4.2
U7G C8A G25A G48A G50C C75U G84U C85A C96A C123A A150U | ≤ -4.2
U7G C8G A39C A52C U53A U55A C95U A98G | ≤ -4.2
U7G C10A A12U A47U C54G C96A | ≤ -4.2
U7G C14G G68U C131A | ≤ -4.2
U7G C14U C85A A91G C103A C116G A121U C131U G133C C149G | ≤ -4.2
U7G C18G A39U U61A U90G U102C A119U G124A C125U A142U | ≤ -4.2
U7G C27A G42A C76A A89U G92C | ≤ -4.2
U7G C35A A40G U77C A150U | ≤ -4.2
U7G C35G A40U C57G C85U A97G U102C A106U | ≤ -4.2

Variant | polymerase ribozyme fitness (log ratio)
U7G C69G C93A | ≤ -4.2
U7G C76A C93A G126U G140C | ≤ -4.2
U7G C85U | -2.79
U7G G11C A29C U82G C95U U109G | ≤ -4.2
U7G G11C U33C A64U C96A A122G G124A G140U | ≤ -4.2
U7G G42A U44A G68C A91U G117A U135A | ≤ -4.2
U7G G48U G92A C103A A142G U145C G152U | ≤ -4.2
U7G G83C G88U G152A | ≤ -4.2
U7G U9C C14G A19U C96G A107G | ≤ -4.2
U7G U53A U56G G84U U148C | ≤ -4.2
U7G U55G U82C C87U C93A U134C G143A | ≤ -4.2
U7G U56A C76A G84A G128A | ≤ -4.2
U7G U102G | ≤ -4.2
C8A A12G | -3.98
C8A A12G A17G U56A A97U A147C | ≤ -4.2
C8A A12U C36A | ≤ -4.2
C8A A16C C18G A49C C95U A98G A142U | ≤ -4.2
C8A A16C U55A G81A C96U | ≤ -4.2
C8A A16G C36G A52C C87G A91G C95A A98U G126A G143A U146C | ≤ -4.2
C8A A17C G50C C51U C57G C76U A89U C103G U144A | ≤ -4.2
C8A A17U A40C C116U | ≤ -4.2
C8A A19C C51A G74A G84A C96G C103U A115U U134G U139G | ≤ -4.2
C8A A19G C36U U77G G126U G141U | ≤ -4.2
C8A A19U C54U C93A C95U U134A U144A | ≤ -4.2

Variant | polymerase ribozyme fitness (log ratio)
C8A A19U G84U A106C G117U G124A | ≤ -4.2
C8A A20U A40U U44G G67U G71U C93G A113G U148G | ≤ -4.2
C8A A20U G86U A89U U90G C93U | ≤ -4.2
C8A A22C A28U A29C C87G U109C G140A | ≤ -4.2
C8A A22G C27A A41G G88U C125A U146C | ≤ -4.2
C8A A22G U56A C57U C85G | ≤ -4.2
C8A A22U A30C C69G G140C | ≤ -4.2
C8A A23C C35G C43G U56A U78G C79A C93U U109G U146C | ≤ -4.2
C8A A26G A49G G62C C85U C114U | ≤ -4.2
C8A A26G G42C G86U | ≤ -4.2
C8A A26U A37C G59A C93U | ≤ -4.2
C8A A26U A49U G83U U101G C118U A138C | ≤ -4.2
C8A A28U A91C | ≤ -4.2
C8A A28U C79U C93U C105U | ≤ -4.2
C8A A29C C36A U55A A66U G86A C87G | ≤ -4.2
C8A A41G | -4.12
C8A A47G A49G A52C U55A G88U U104A A119U U146C U148A | ≤ -4.2
C8A A49C G80C G92A A106U A113C C118U G141U G143U C149G | ≤ -4.2
C8A A66C G83U G92C U104A C114A | ≤ -4.2
C8A A91C G143A U145G | ≤ -4.2
C8A C10U A26U A29G U78G C93A C116U C125U | ≤ -4.2
C8A C10U C75A G86A A98U A138C | ≤ -4.2
C8A C10U U13C A19G G46A G50A A52U C87G A107G C123A A138G | ≤ -4.2
C8A C14G A21G A28C G70A C75A G83A U146C | ≤ -4.2

Variant | polymerase ribozyme fitness (log ratio)
C8A C14G U53C G58A G62C C85G | ≤ -4.2
C8A C14U G50C C57U G68A | ≤ -4.2
C8A C18G A40G C54G A73C C87A U90A C114U | ≤ -4.2
C8A C18G C85G G92U C99G | ≤ -4.2
C8A C27G U33A C72G U102G A142G | ≤ -4.2
C8A C27U U44G A49C C72G C79A G92A G143U | ≤ -4.2
C8A C27U U56C U111C A138G | ≤ -4.2
C8A C32A G59C C85G C95U A106U A107G | ≤ -4.2
C8A C32G G65U A73G C96G | ≤ -4.2
C8A C36A A40C C85U G92A C108U | ≤ -4.2
C8A C43A A60U C95U C96A U104G C105U G140C G143A | ≤ -4.2
C8A C43U G46A A73G C85U U134G U151A | ≤ -4.2
C8A C51G | ≤ -4.2
C8A C51U A73C C87A C103G U139C | ≤ -4.2
C8A C54A C87U U127G | ≤ -4.2
C8A C54U C75G G92A A98G A106U | ≤ -4.2
C8A C57U G67C C95A A97G U151A | ≤ -4.2
C8A C75A G88A U145G A150G | ≤ -4.2
C8A C75A U82G C85U C96A A121G G136C | ≤ -4.2
C8A C93G | ≤ -4.2
C8A G11A G50C U82A G83C | ≤ -4.2
C8A G11A U13A G70A C93A U102A | ≤ -4.2
C8A G11A U13C U56C U78G G80A G84C | ≤ -4.2
C8A G11C A40G A73U C85U G92A A121U A147U | ≤ -4.2

Variant | polymerase ribozyme fitness (log ratio)
C8A G25C C76A G83A A119G | ≤ -4.2
C8A G25U A49G G68C G92U U151C | ≤ -4.2
C8A G34C U56A G86A G112U A119U G128C G143A | ≤ -4.2
C8A G34U C76A G86A C118G | ≤ -4.2
C8A G48A C54A G86A | ≤ -4.2
C8A G48A G92C | ≤ -4.2
C8A G50A C54U G81U A98U A137C A147C | ≤ -4.2
C8A G50A G88A | ≤ -4.2
C8A G59C C93G G140U | ≤ -4.2
C8A G71C G92C U104G G152U | ≤ -4.2
C8A G71U C79G | ≤ -4.2
C8A G83U C105G C131U A142C | ≤ -4.2
C8A U9A A41U C43G C85U G88U A119C C125U | ≤ -4.2
C8A U9C G11U A24U G50C C57U G58U C87G U90A G94A U127G | ≤ -4.2
C8A U13A A40C C79U | ≤ -4.2
C8A U13A A40C G62A G71U G92U | ≤ -4.2
C8A U13A A49C U55A C85G G141U | ≤ -4.2
C8A U13G U33A G124A U146C | ≤ -4.2
C8A U53A C57G A66U G92C C129U | ≤ -4.2
C8A U53A G92A A107U | ≤ -4.2
C8G A12C A19U C57U C72G C87G C108U A120C | ≤ -4.2
C8G A12G G42C U82A C95U C108U G136A G143A A150U | ≤ -4.2
C8G A12U C14G U15G A21G C54G C57A A91G C99G | ≤ -4.2
C8G A12U C36A A52U G83A G126C A138U | ≤ -4.2

Variant | polymerase ribozyme fitness (log ratio)
C8G A19C G25C C51U A60G U90C G117C A150G | ≤ -4.2
C8G A20U A21U A30G U31A A60C G62A C131U | ≤ -4.2
C8G A21C C93A U102A C108G G141U | ≤ -4.2
C8G A21C G94C C99A | ≤ -4.2
C8G A21G A41U U44G C87A C108U C149U | ≤ -4.2
C8G A21U C35G U45C C108G U148G | ≤ -4.2
C8G A22U G92U C95U U104G | ≤ -4.2
C8G A23G G84A A97G U104A U134C | ≤ -4.2
C8G A23U A30U G42C G83C A97U | ≤ -4.2
C8G A23U A37C G92U | ≤ -4.2
C8G A23U A49G C75G C87A C103U G143U | ≤ -4.2
C8G A24C A30U A37C C116U | ≤ -4.2
C8G A24C C43G U53G C93A C96A | ≤ -4.2
C8G A24G A26C U53A C75U C95U C96U C114U A150U | ≤ -4.2
C8G A24G C54U G68A G71A A91U C95A | ≤ -4.2
C8G A26C A39G G50U G92A C118A U148G | ≤ -4.2
C8G A26C A91C U145G | ≤ -4.2
C8G A26C G50A C95A A98G A115U G136C | ≤ -4.2
C8G A28C A37U C57U A91U A113U C132U G143C | ≤ -4.2
C8G A28G G62A G92U | ≤ -4.2
C8G A28G U77G U134A | ≤ -4.2
C8G A28U A29C U53A C57U C69U | ≤ -4.2
C8G A28U G94A | ≤ -4.2
